Among the data in patent US20090104178A1 (published 2009) are Kd values, retold here.

For this assay, the target named is Purified recombinant EV CrmD protein (ectromelia virus).

B1: hCCL20 (ligand)
chemokine: not shown
What is called Kd is the free concentration of one partner at which half of the binding sites on the other are occupied at equilibrium, for simple one-to-one binding. Consider B1, for which the Kd was 4.3 nM.
